{"source": "the supplement of paper PMC12217912", "parents": {"B1": {"name": "TEV protease; numbered along this chain (parent)", "chain": "MGESLFKGPRDYNPISSSICHLTNESDGHTTSLYGIGFGPFIITNKHLFRRNNGTLVVQSLHGVFKVKDTTTLQQHLVDGRDMIIIRMPKDFPPFPQKLKFREPQREERICLVTTNFQTKSMSSMVSDTSCTFPSGDGIFWKHWIQTKDGQCGSPLVSTRDGFIVGIHSASNFTNTNNYFTSVPKNFMELLTNQEAQQWVSGWRLNADSVLWGGHKVFMVKPEEPFQPVKEATQL"}}, "note": "The other results are listed elsewhere or left out. Sequences were assembled here from the parent chain. Values near 0.05 are background.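 Also: Bxb1 expression induced with 0.2% (w/v) L-rhamnose at OD600 near 0.5, cultures sampled hourly, flipped fraction per protease–substrate barcode pair counted by paired-end Illumina sequencing.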", "data": [{"variants_of": "B1", "assay": "raw area under fraction-flipped curve 0-4 h after induction (AUC4h, not background-subtracted), DNA-recorder readout of cleavage of the substrate (dimensionless); higher = more cleavage of the substrate by the protease variant", "conditions": "temperature: 34 °C; time window: 0-4 h after rhamnose induction", "method": "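In vivo DNA recorder in E. coli TOP10(DE3) ΔrhaA at 34 °C. Each TEVp single-site mutant (parent TEVp 0) is paired with a single-site variant of the 7-mer TEVs (canonical ENLYFQ|S). The substrate sits between flexible linkers in a Bxb1-sfGFP-TEVs-SsrA fusion, so cleavage stabilises Bxb1 and speeds flipping of a recombination array, read by NGS. The value is the raw area under the fraction-flipped curve over 0-4 h after rhamnose induction (AUC4h), with ≥20 reads per time point. It is not background-subtracted; inactive controls average about 0.047.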", "values": [{"variant": "N172I", "area with substrate EALYFQS": 0.0459, "area with substrate EHLYFQS": 0.0616, "area with substrate EILYFQS": 0.0648, "area with substrate EKLYFQS": 0.0578, "area with substrate EQLYFQS": 0.0565, "area with substrate ERLYFQS": 0.0497, "area with substrate ESLYFQS": 0.0715}, {"variant": "N172G", "area with substrate EALYFQS": 0.0631, "area with substrate EDLYFQS": 0.0794, "area with substrate EILYFQS": 0.0536, "area with substrate EKLYFQS": 0.0706, "area with substrate ELLYFQS": 0.0663, "area with substrate EMLYFQS": 0.055, "area with substrate EPLYFQS": 0.0513, "area with substrate ESLYFQS": 0.0693, "area with substrate EVLYFQS": 0.0562, "area with substrate EWLYFQS": 0.0685, "area with substrate EYLYFQS": 0.071}, {"variant": "L5V", "area with substrate ECLYFQS": 0.148, "area with substrate EELYFQS": 0.137, "area with substrate EGLYFQS": 0.132, "area with substrate EKLYFQS": 0.0987, "area with substrate ELLYFQS": 0.11, "area with substrate EMLYFQS": 0.132, "area with substrate EPLYFQS": 0.124, "area with substrate EQLYFQS": 0.12, "area with substrate ERLYFQS": 0.102, "area with substrate EVLYFQS": 0.149, "area with substrate EWLYFQS": 0.0932, "area with substrate EYLYFQS": 0.122}, {"variant": "L5A", "area with substrate ECLYFQS": 0.117, "area with substrate EDLYFQS": 0.157, "area with substrate EFLYFQS": 0.0863, "area with substrate EHLYFQS": 0.116, "area with substrate EQLYFQS": 0.165, "area with substrate ERLYFQS": 0.101, "area with substrate EVLYFQS": 0.0921, "area with substrate EWLYFQS": 0.113, "area with substrate EYLYFQS": 0.118}, {"variant": "L5W", "area with substrate ECLYFQS": 0.115, "area with substrate EELYFQS": 0.172, "area with substrate EFLYFQS": 0.186, "area with substrate EGLYFQS": 0.125, "area with substrate EILYFQS": 0.0978, "area with substrate EKLYFQS": 0.0964, "area with substrate ELLYFQS": 0.0884, "area with substrate EPLYFQS": 0.155, "area with substrate EQLYFQS": 0.137, "area with substrate ERLYFQS": 0.121, "area with substrate ESLYFQS": 0.118, "area with substrate ETLYFQS": 0.102, "area with substrate EVLYFQS": 0.112, "area with substrate EWLYFQS": 0.103}, {"variant": "S158P", "area with substrate EALYFQS": 0.0554, "area with substrate EDLYFQS": 0.049, "area with substrate EELYFQS": 0.0676, "area with substrate EFLYFQS": 0.0596, "area with substrate EGLYFQS": 0.0586, "area with substrate EHLYFQS": 0.0403, "area with substrate EILYFQS": 0.0419, "area with substrate EKLYFQS": 0.0558, "area with substrate EMLYFQS": 0.0561, "area with substrate EPLYFQS": 0.0477, "area with substrate ESLYFQS": 0.0535, "area with substrate EVLYFQS": 0.0473, "area with substrate EWLYFQS": 0.0384, "area with substrate EYLYFQS": 0.0512}, {"variant": "S158F", "area with substrate EALYFQS": 0.049, "area with substrate ECLYFQS": 0.0389, "area with substrate EGLYFQS": 0.0476, "area with substrate EMLYFQS": 0.0465, "area with substrate EQLYFQS": 0.0561, "area with substrate ETLYFQS": 0.049, "area with substrate EVLYFQS": 0.0434}, {"variant": "S171A", "area with substrate EALYFQS": 0.102, "area with substrate ECLYFQS": 0.0471, "area with substrate EILYFQS": 0.0795, "area with substrate EPLYFQS": 0.0854, "area with substrate EQLYFQS": 0.095, "area with substrate ERLYFQS": 0.0926, "area with substrate EVLYFQS": 0.0824}, {"variant": "S171Q", "area with substrate EALYFQS": 0.063, "area with substrate EELYFQS": 0.0622, "area with substrate EHLYFQS": 0.0675, "area with substrate ESLYFQS": 0.0567, "area with substrate EVLYFQS": 0.0791}, {"variant": "F226R", "area with substrate EALYFQS": 0.111, "area with substrate EDLYFQS": 0.154, "area with substrate EHLYFQS": 0.0943, "area with substrate EKLYFQS": 0.111, "area with substrate EQLYFQS": 0.0769, "area with substrate ESLYFQS": 0.0925, "area with substrate ETLYFQS": 0.0892, "area with substrate EVLYFQS": 0.0975}, {"variant": "F226T", "area with substrate EALYFQS": 0.114, "area with substrate EDLYFQS": 0.173, "area with substrate EMLYFQS": 0.141, "area with substrate ETLYFQS": 0.166, "area with substrate EWLYFQS": 0.0918}, {"variant": "N186D", "area with substrate EALYFQS": 0.127, "area with substrate EELYFQS": 0.154, "area with substrate EFLYFQS": 0.131, "area with substrate EGLYFQS": 0.104, "area with substrate ELLYFQS": 0.102, "area with substrate EMLYFQS": 0.102, "area with substrate EPLYFQS": 0.0962, "area with substrate EQLYFQS": 0.13, "area with substrate ESLYFQS": 0.102, "area with substrate ETLYFQS": 0.128, "area with substrate EWLYFQS": 0.0827}, {"variant": "K230Y", "area with substrate EALYFQS": 0.105, "area with substrate EGLYFQS": 0.0949, "area with substrate EHLYFQS": 0.0981, "area with substrate EQLYFQS": 0.0976, "area with substrate ESLYFQS": 0.0879, "area with substrate EYLYFQS": 0.103}, {"variant": "K7G", "area with substrate ECLYFQS": 0.118, "area with substrate EDLYFQS": 0.116, "area with substrate EFLYFQS": 0.0945, "area with substrate EGLYFQS": 0.102, "area with substrate EHLYFQS": 0.104, "area with substrate EILYFQS": 0.0786, "area with substrate EKLYFQS": 0.102, "area with substrate ELLYFQS": 0.0738, "area with substrate EMLYFQS": 0.0923, "area with substrate EPLYFQS": 0.156, "area with substrate ERLYFQS": 0.115, "area with substrate ESLYFQS": 0.104, "area with substrate EVLYFQS": 0.0862, "area with substrate EWLYFQS": 0.104}, {"variant": "Q197M", "area with substrate EALYFQS": 0.13, "area with substrate EELYFQS": 0.128, "area with substrate EILYFQS": 0.0952, "area with substrate ESLYFQS": 0.113, "area with substrate EVLYFQS": 0.107}, {"variant": "Q197T", "area with substrate EALYFQS": 0.136, "area with substrate EGLYFQS": 0.108, "area with substrate EKLYFQS": 0.099, "area with substrate ELLYFQS": 0.0867, "area with substrate ERLYFQS": 0.109, "area with substrate ESLYFQS": 0.157, "area with substrate EVLYFQS": 0.0994, "area with substrate EWLYFQS": 0.121}, {"variant": "S169E", "area with substrate EALYFQS": 0.0554, "area with substrate ECLYFQS": 0.0554, "area with substrate EELYFQS": 0.0614, "area with substrate EILYFQS": 0.0439, "area with substrate EPLYFQS": 0.059, "area with substrate EQLYFQS": 0.0606, "area with substrate ESLYFQS": 0.0595, "area with substrate EVLYFQS": 0.05}, {"variant": "V210H", "area with substrate EALYFQS": 0.0792, "area with substrate EDLYFQS": 0.104, "area with substrate EILYFQS": 0.0764, "area with substrate EQLYFQS": 0.065, "area with substrate ERLYFQS": 0.129, "area with substrate ESLYFQS": 0.115, "area with substrate ETLYFQS": 0.0809, "area with substrate EVLYFQS": 0.0771, "area with substrate EYLYFQS": 0.0727}, {"variant": "V210R", "area with substrate EALYFQS": 0.0749, "area with substrate EELYFQS": 0.0732, "area with substrate EILYFQS": 0.0489, "area with substrate EKLYFQS": 0.0634, "area with substrate EMLYFQS": 0.0945, "area with substrate ERLYFQS": 0.0646, "area with substrate ESLYFQS": 0.0699, "area with substrate ETLYFQS": 0.0594, "area with substrate EWLYFQS": 0.066, "area with substrate EYLYFQS": 0.0642}]}]}
